First the molecules themselves.
B1: TEV protease; numbered along this chain (parent)
chain: MGESLFKGPRDYNPISSSICHLTNESDGHTTSLYGIGFGPFIITNKHLFRRNNGTLVVQSLHGVFKVKDTTTLQQHLVDGRDMIIIRMPKDFPPFPQKLKFREPQREERICLVTTNFQTKSMSSMVSDTSCTFPSGDGIFWKHWIQTKDGQCGSPLVSTRDGFIVGIHSASNFTNTNNYFTSVPKNFMELLTNQEAQQWVSGWRLNADSVLWGGHKVFMVKPEEPFQPVKEATQL

Some of the results follow. The full chains were built here from the parent and the listed change. Values near 0.05 are background.

In this assay the parent is B1. In words: raw area under fraction-flipped curve 0-4 h after induction (AUC4h, not background-subtracted), DNA-recorder readout of cleavage of the substrate (dimensionless); higher = more cleavage of the substrate by the protease variant. The settings on record: temperature: 34 °C; time window: 0-4 h after rhamnose induction. The procedure:
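In vivo DNA recorder in E. coli TOP10(DE3) ΔrhaA at 34 °C. Each TEVp single-site mutant (parent TEVp 0) is paired with a single-site variant of the 7-mer TEVs (canonical ENLYFQ|S). The substrate sits between flexible linkers in a Bxb1-sfGFP-TEVs-SsrA fusion, so cleavage stabilises Bxb1 and speeds flipping of a recombination array, read by NGS. The value is the raw area under the fraction-flipped curve over 0-4 h after rhamnose induction (AUC4h), with ≥20 reads per time point. It is not background-subtracted; inactive controls average about 0.047.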
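Further: Bxb1 expression induced with 0.2% (w/v) L-rhamnose at OD600 near 0.5, cultures sampled hourly, flipped fraction per protease–substrate barcode pair counted by paired-end Illumina sequencing.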

Turning to MGESLFKGPRDYNPISSSICHLTNESDGHTTSLYGIGFGPFIITNKHLFRRNNGTLVVQSLHGVFKVKDTTTLQQHLVDGRDMIIIRMPKDFPPFPQKLKFREPQREERICLVTTNFQTKSMSSMVSDTSCTFHSGDGIFWKHWIQTKDGQCGSPLVSTRDGFIVGIHSASNFTNTNNYFTSVPKNFMELLTNQEAQQWVSGWRLNADSVLWGGHKVFMVKPEEPFQPVKEATQL [P134H], the “area with substrate EALYFQS” value was determined as 0.0787, the “area with substrate ECLYFQS” value came out at 0.0839, the “area with substrate EDLYFQS” value amounted to 0.106 and the “area with substrate EELYFQS” value was 0.0912. The “area with substrate EFLYFQS” value came to 0.0895, the “area with substrate EGLYFQS” value came out at 0.0672, the “area with substrate EHLYFQS” value came out at 0.0932 and the “area with substrate EILYFQS” value stood at 0.0694. Further, the “area with substrate EKLYFQS” value was 0.0588, the “area with substrate EMLYFQS” value was determined as 0.0638, the “area with substrate EQLYFQS” value stood at 0.0809 and the “area with substrate ERLYFQS” value worked out at 0.0768. Also, the “area with substrate ESLYFQS” value came to 0.0856, the “area with substrate ETLYFQS” value amounted to 0.0721, the “area with substrate EVLYFQS” value stood at 0.0656 and the “area with substrate EWLYFQS” value came to 0.0721. Besides, the “area with substrate EYLYFQS” value came to 0.0883.

Regarding MGESLFKGPRDYNPISSSICHLTNESDGHTTSLYGIGFGPFIRTNKHLFRRNNGTLVVQSLHGVFKVKDTTTLQQHLVDGRDMIIIRMPKDFPPFPQKLKFREPQREERICLVTTNFQTKSMSSMVSDTSCTFPSGDGIFWKHWIQTKDGQCGSPLVSTRDGFIVGIHSASNFTNTNNYFTSVPKNFMELLTNQEAQQWVSGWRLNADSVLWGGHKVFMVKPEEPFQPVKEATQL [I43R], the “area with substrate EALYFQS” value was 0.0558, the “area with substrate ECLYFQS” value was found to be 0.0504, the “area with substrate EDLYFQS” value turned out to be 0.0436 and the “area with substrate EELYFQS” value amounted to 0.0481. For the same variant, the “area with substrate EFLYFQS” value amounted to 0.111, the “area with substrate EGLYFQS” value turned out to be 0.0566, the “area with substrate EILYFQS” value was 0.0604 and the “area with substrate EKLYFQS” value worked out at 0.0569. The “area with substrate ELLYFQS” value came out at 0.0377, the “area with substrate EMLYFQS” value came out at 0.0368, the “area with substrate EPLYFQS” value amounted to 0.0365 and the “area with substrate EQLYFQS” value stood at 0.0376. Further, the “area with substrate ERLYFQS” value turned out to be 0.0541, the “area with substrate ESLYFQS” value was 0.0481, the “area with substrate ETLYFQS” value was 0.0442 and the “area with substrate EVLYFQS” value came to 0.0298. The “area with substrate EWLYFQS” value turned out to be 0.0484 and the “area with substrate EYLYFQS” value worked out at 0.0489.

As for MGESLFKGPRDYNPISSSICHLTNESDGHTTSLYGIGFGPFIITNKHNFRRNNGTLVVQSLHGVFKVKDTTTLQQHLVDGRDMIIIRMPKDFPPFPQKLKFREPQREERICLVTTNFQTKSMSSMVSDTSCTFPSGDGIFWKHWIQTKDGQCGSPLVSTRDGFIVGIHSASNFTNTNNYFTSVPKNFMELLTNQEAQQWVSGWRLNADSVLWGGHKVFMVKPEEPFQPVKEATQL [L48N], the “area with substrate EALYFQS” value came out at 0.0639, the “area with substrate ECLYFQS” value was 0.0592, the “area with substrate EDLYFQS” value was found to be 0.0622 and the “area with substrate EELYFQS” value came to 0.0538. The “area with substrate EFLYFQS” value was 0.0675, the “area with substrate EGLYFQS” value came out at 0.0547, the “area with substrate EHLYFQS” value worked out at 0.0623 and the “area with substrate EILYFQS” value was 0.0631. Also, the “area with substrate ELLYFQS” value was found to be 0.0632, the “area with substrate EMLYFQS” value came to 0.0849, the “area with substrate EQLYFQS” value is 0.0707 and the “area with substrate ERLYFQS” value was determined as 0.0808. Also, the “area with substrate ESLYFQS” value was 0.0599, the “area with substrate EVLYFQS” value turned out to be 0.0581 and the “area with substrate EWLYFQS” value stood at 0.0521.

For the variant MGESLFKGPRDYNPISSSICHLTNESDGHTTSLYGIGFGPFIITNKHAFRRNNGTLVVQSLHGVFKVKDTTTLQQHLVDGRDMIIIRMPKDFPPFPQKLKFREPQREERICLVTTNFQTKSMSSMVSDTSCTFPSGDGIFWKHWIQTKDGQCGSPLVSTRDGFIVGIHSASNFTNTNNYFTSVPKNFMELLTNQEAQQWVSGWRLNADSVLWGGHKVFMVKPEEPFQPVKEATQL [L48A], the “area with substrate EALYFQS” value is 0.0873, the “area with substrate EFLYFQS” value was 0.0704, the “area with substrate EGLYFQS” value stood at 0.0669 and the “area with substrate EHLYFQS” value turned out to be 0.0851. For the same variant, the “area with substrate EILYFQS” value came out at 0.0671, the “area with substrate ELLYFQS” value was determined as 0.0896, the “area with substrate EMLYFQS” value stood at 0.0902 and the “area with substrate EPLYFQS” value came to 0.0795. For the same variant, the “area with substrate EQLYFQS” value turned out to be 0.0893, the “area with substrate ERLYFQS” value stood at 0.108, the “area with substrate ESLYFQS” value was 0.0774 and the “area with substrate EVLYFQS” value was 0.0762. Further, the “area with substrate EWLYFQS” value came to 0.0743 and the “area with substrate EYLYFQS” value is 0.0825.

In the case of MGESLFKGPRDYNPISSSICHLTNESDGHTTSLYGIGFGPFIITNKHLFRRNNGTLVVQSLHGVFKVKDTTTLQQHLVDGRDMIIIRMPKDFPPFPQKLKFREPQREERICLVTTNFQTKSMSSMVSDTSCTFPSGDGIFWKHWIQTKMGQCGSPLVSTRDGFIVGIHSASNFTNTNNYFTSVPKNFMELLTNQEAQQWVSGWRLNADSVLWGGHKVFMVKPEEPFQPVKEATQL [D149M], the “area with substrate EALYFQS” value came to 0.0911, the “area with substrate ECLYFQS” value was determined as 0.108, the “area with substrate EDLYFQS” value came to 0.191 and the “area with substrate EELYFQS” value is 0.102. The “area with substrate EFLYFQS” value was 0.0902, the “area with substrate EGLYFQS” value turned out to be 0.0897, the “area with substrate EHLYFQS” value came to 0.108 and the “area with substrate EILYFQS” value amounted to 0.0721. The “area with substrate EKLYFQS” value is 0.0884, the “area with substrate EMLYFQS” value is 0.0784, the “area with substrate EQLYFQS” value was determined as 0.0974 and the “area with substrate ERLYFQS” value worked out at 0.0849. Besides, the “area with substrate ESLYFQS” value stood at 0.0711, the “area with substrate ETLYFQS” value is 0.0884, the “area with substrate EVLYFQS” value turned out to be 0.0748 and the “area with substrate EWLYFQS” value was 0.0641. The “area with substrate EYLYFQS” value was 0.0963.

MGESLFKGPRDYNPISSSICHLTNESDGHTTSLYGIGFGPFIITNKHLFRRNNGTLVVQSLHGVFKVKDTTTLQQHLVDGRDMIIIRMPKDFPPFPQKLKFREPQREERICLVTTNFQTKSMSSMVSDTSCTFPSGDGIFWKHWIQTKDGQCGSPLVSTRDGFIVGIHSASNFTKTNNYFTSVPKNFMELLTNQEAQQWVSGWRLNADSVLWGGHKVFMVKPEEPFQPVKEATQL [N175K]: the “area with substrate EALYFQS” value turned out to be 0.112, the “area with substrate ECLYFQS” value is 0.0821, the “area with substrate EDLYFQS” value was found to be 0.164 and the “area with substrate EELYFQS” value was 0.122. In addition, the “area with substrate EFLYFQS” value worked out at 0.159, the “area with substrate EGLYFQS” value was 0.082, the “area with substrate EILYFQS” value amounted to 0.0832 and the “area with substrate EKLYFQS” value was 0.0864. For the same variant, the “area with substrate ELLYFQS” value was determined as 0.0946, the “area with substrate EPLYFQS” value was determined as 0.135, the “area with substrate EQLYFQS” value was 0.105 and the “area with substrate ERLYFQS” value is 0.0794. The “area with substrate ESLYFQS” value amounted to 0.125, the “area with substrate ETLYFQS” value is 0.102, the “area with substrate EVLYFQS” value was found to be 0.0942 and the “area with substrate EYLYFQS” value worked out at 0.0881.

As to MGESLFKGPRDYNPITSSICHLTNESDGHTTSLYGIGFGPFIITNKHLFRRNNGTLVVQSLHGVFKVKDTTTLQQHLVDGRDMIIIRMPKDFPPFPQKLKFREPQREERICLVTTNFQTKSMSSMVSDTSCTFPSGDGIFWKHWIQTKDGQCGSPLVSTRDGFIVGIHSASNFTNTNNYFTSVPKNFMELLTNQEAQQWVSGWRLNADSVLWGGHKVFMVKPEEPFQPVKEATQL [S16T], the “area with substrate EALYFQS” value is 0.0885, the “area with substrate ECLYFQS” value is 0.0901, the “area with substrate EDLYFQS” value was 0.148 and the “area with substrate EELYFQS” value worked out at 0.105. Moreover, the “area with substrate EGLYFQS” value was determined as 0.101, the “area with substrate EILYFQS” value was determined as 0.0931, the “area with substrate EKLYFQS” value is 0.144 and the “area with substrate ELLYFQS” value was 0.101. Also, the “area with substrate EMLYFQS” value is 0.0917, the “area with substrate EPLYFQS” value amounted to 0.135, the “area with substrate ERLYFQS” value came to 0.137 and the “area with substrate ESLYFQS” value was determined as 0.0862. Further, the “area with substrate ETLYFQS” value was 0.119, the “area with substrate EVLYFQS” value worked out at 0.0938, the “area with substrate EWLYFQS” value stood at 0.0911 and the “area with substrate EYLYFQS” value is 0.0918.

As for MGESLFKGPRDYNPISSSICHLTNESDGHTTMLYGIGFGPFIITNKHLFRRNNGTLVVQSLHGVFKVKDTTTLQQHLVDGRDMIIIRMPKDFPPFPQKLKFREPQREERICLVTTNFQTKSMSSMVSDTSCTFPSGDGIFWKHWIQTKDGQCGSPLVSTRDGFIVGIHSASNFTNTNNYFTSVPKNFMELLTNQEAQQWVSGWRLNADSVLWGGHKVFMVKPEEPFQPVKEATQL [S32M], the “area with substrate EALYFQS” value is 0.215, the “area with substrate ECLYFQS” value came out at 0.141, the “area with substrate EDLYFQS” value stood at 0.145 and the “area with substrate EHLYFQS” value was determined as 0.0968. Besides, the “area with substrate EILYFQS” value was determined as 0.0872, the “area with substrate EPLYFQS” value came to 0.143, the “area with substrate EQLYFQS” value stood at 0.135 and the “area with substrate ERLYFQS” value was 0.141. Also, the “area with substrate ESLYFQS” value came out at 0.157 and the “area with substrate EVLYFQS” value was 0.099.

Regarding MGESLFKGPRDYNPISSSICHLTNESDGHTTSLYGIGFGPFIITNKHLFRRNNGTLVVQSLHGVFKVKDTTTLQQHLVDGRDMIIIRMPKDFPPFPQKLKFREPQREERICLVTTNFQTKSMSSMVSDTSCTFPSGDGIFWKHWIQTKDGQCGSPLVSTRDGFIVGIQSASNFTNTNNYFTSVPKNFMELLTNQEAQQWVSGWRLNADSVLWGGHKVFMVKPEEPFQPVKEATQL [H168Q], the “area with substrate EALYFQS” value was found to be 0.0675, the “area with substrate ECLYFQS” value came to 0.0583, the “area with substrate EDLYFQS” value turned out to be 0.0692 and the “area with substrate EELYFQS” value came to 0.0916. Also, the “area with substrate EFLYFQS” value turned out to be 0.0687, the “area with substrate EHLYFQS” value worked out at 0.0944, the “area with substrate EKLYFQS” value was determined as 0.0538 and the “area with substrate ELLYFQS” value is 0.0607. The “area with substrate EPLYFQS” value was determined as 0.0765, the “area with substrate EQLYFQS” value turned out to be 0.0701, the “area with substrate ERLYFQS” value is 0.094 and the “area with substrate ESLYFQS” value was 0.0674. Besides, the “area with substrate EWLYFQS” value stood at 0.0556 and the “area with substrate EYLYFQS” value was determined as 0.0354.

Source of the values: the supplement of paper PMC12217912.
